# In the supplement of paper PMC11417369:
# ± gives the standard deviation of the averaged measurements. The list shows a part of the results.
# Tested on: PfAP2-G AP2 domain (GST-tagged)
# Assay: gcPBM binding intensity (ln(normalized median fluorescence intensity)); higher = stronger DNA binding
# Summary of the method: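 The binding buffer was 1× PBS containing 1% milk, 0.2 mg/ml BSA, 0.5% salmon testes DNA and 0.03% Triton X-100. In it, GST-tagged P. falciparum DNA-binding domains expressed in E. coli were applied for 1 h to an Agilent 4 × 180k array of primer-extended double-stranded 36-bp intergenic genomic probes plus negative controls. Binding intensity, read with Alexa488 anti-GST antibody and a 488 nm scan, is the highest Masliner-normalised natural-log median intensity across replicate spots of either probe orientation.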
row,Sequence,gcPBM binding intensity (ln)
1,TTTTTATTTTTTTACAGTACATAAAATAAATAAATA [XGTACX_site6596],11.1 ± 0.91
2,TTTTTTTTATGGAAACGTACATACATACATTAAAGA [XGTACX_site7401],11.3 ± 0.95
3,GTAGATATTTATTGAGTGCATGTTATAAAGGGAAAA [GTGCAC_site9481],10.21 ± 0.035
4,TATATTGATGATGATAGTACGTATGAATACAAAAAA [XGTACX_site4],11 ± 0.65
5,TATTTATATATTTATGCATGTTATAGGCAAAAATGT [TGCATGCA_site397],10 ± 0.16
6,CACCCACCCAGACACACACACACACCCCCACCCATA [CACACA_site367],11.1 ± 0.62
7,TTTTTTTGCATGAGCAATAAAAAAGGCTTGTTCAAA [CACACA_negctrl_site1615],9.74 ± 0.16
8,AATTATTTATTGAGAGTGCAACAAATTATTTCAAAT [GTGCAC_site9461],10.1 ± 0.22
9,ACATTTTAAATACGATGTACTTGAGTTTTTTTTAAA [XGTACX_site5833],11 ± 0.53
10,TATATGAATAAACATTGTACGTAAATATTAACTATC [XGTACX_site543],11.5 ± 1
11,GAAATAAAAGATGGTTGTACACCGTTTTCTCATATA [XGTACX_site5368],11.5 ± 0.89
12,TACATATATGATAAAAGTACATATAAATATACATAA [XGTACX_site3804],11.3 ± 0.87
13,TTATATATTAAGAAATGTACGAAAAAAAAAATTATA [XGTACX_site3893],10.9 ± 0.53
14,AAGATGATAAAATATGTACACACAGTTTATACATTT [CACACA_site9341],11.3 ± 0.83
15,TATAATAATAATAATAATAATAATAATAATAATAAT [CACACA_negctrl_site905],9.38 ± 0.19
16,CGCATAAAGACAAGAACACACATATAGATTGTAGTA [CACACA_site3693],9.84 ± 0.19
17,TCAATAAGATTATAAAGTACTTTTGAAGATATTATA [XGTACX_site7489],10.9 ± 0.47
18,TTTCTTATTTTTTTCACACACTAAACATTTCAAATG [CACACA_site5259],10.3 ± 0.21
19,AAATATTTAAATATTATGTATGATTATATATATATA [CACACA_negctrl_site590],9.77 ± 0.28
20,AAATAAATAAATAAATGTACACATATATATATATAT [XGTACX_site7787],11.3 ± 0.67
21,AAAAAAAAAAAAAAAACACACAAAAGCAAGAAAAAC [CACACA_site3198],10.3 ± 0.26
22,AAAGTAAAAACACATACATGCATATACACATATAAC [TGCATGCA_site341],9.9 ± 0.12

row,Sequence,gcPBM binding intensity (ln)
1,ATAAATATGTATTGCTGTACATATATATAAATTATC [XGTACX_site8411],11.2 ± 0.75
2,AATAGGAAAACCTATACACACTTTAAAAAAAATATA [CACACA_site4977],9.785 ± 0.007
3,AAAGAGAACATAAGTACACACATGTTCTTTTAGTAA [CACACA_site2824],11.4 ± 0.93
4,TTTTTGCCATATTACACACACACATGGAAACCCCCT [CACACA_site4994],11.1 ± 0.64
5,TAAAAAATTTTCGCGTGTACGCAAGAAAAAAAAAAT [XGTACX_site3058],11.6 ± 0.84
6,TAAAAAATAAGATATACACACATATATTTATTTATA [CACACA_site7158],9.62 ± 0.11
7,CAAATAAATTAAAGGTGTACTTTTATAGTTACGACA [XGTACX_site3926],11.4 ± 0.81
8,CATATTTTCTTGTGTACACATTTATTTTATACTATA [CACACA_site6032],11.7 ± 0.97
9,TATATATTTAGTTAGTGTACAAGTTATTTAGTAGTT [XGTACX_site5133],11.3 ± 0.91
10,TCTTTTAACAAATAATAAGCTAATTTATATTATTAT [GTGCAC_negctrl_site655],9.49 ± 0.21
11,AAAAAAATAATGTATATATAAATTTATTTACATATG [GTGCAC_negctrl_site107],9.73 ± 0.042
12,GGTACGTATTTCAATGCATGTCCATGTACATATAAA [TGCATGCA_site208],11.6 ± 0.41
13,ATTGCGTGATAATAATGTACAAAAAGTAATTTATAT [XGTACX_site8339],10.7 ± 0.33
14,TCATTCTAAATATAAACACACATAAATATATACATT [CACACA_site3354],9.905 ± 0.092
15,AATATATAATTTTTAACACACAAAAAAAAAAAAAAT [CACACA_site3581],9.9 ± 0.18
16,AAAAAAAAAAAAAAAACACACACATATAATATATTT [CACACA_site8369],10.3 ± 0.3
17,CATACGTTCTAATATATACACACCTGGTATTAATTA [CACACA_site2221],10.04 ± 0.021
18,CTATAATGTTTCTTTCAACACACAAAAAATGAACAC [CACACA_site8438],10.4 ± 0.26
19,TATGCACAGAAACACACACACACAACCAAAAAATAA [CACACA_site5425],10.2 ± 0.28
20,AAAAAAAAAAAAAAAAGTACAAAAATATATATGCAT [XGTACX_site8392],11.4 ± 0.75
21,CAGAATATATTCTATACATGCAATAGGAAATGTAGC [TGCATGCA_site110],10.2 ± 0.11
22,TTTTTATTTATATGTATACACACTTTAATTAAAAGT [CACACA_site2525],10.34 ± 0.071

row,Sequence,gcPBM binding intensity (ln)
1,TGTTATATATAAATTTGTACACATAAATATTTTTAC [XGTACX_site5873],11.4 ± 0.78
2,AATAAAAAAAAATGCACACATATATATATATATATA [CACACA_site2421],10.2 ± 0.6
3,TTAAACTTGAAACACACACACACACCCATATAAAAA [CACACA_site758],10.3 ± 0.38
4,AATGTGTAGGTAAGATAATTTTTGTTTTTTTATTTG [CACACA_negctrl_site424],9.94 ± 0.042
5,ATATTTATAATATAGAGTACTTACTAAGTTATGGGT [XGTACX_site5405],11.2 ± 0.71
6,AAATTTTCTTAAGGTTGTACTTTTTGAAAATAATCT [XGTACX_site4894],11.3 ± 0.9
7,TGTAGTCTGGAGAAACGTACATAGTATCTGGTAGCT [XGTACX_site2538],11.1 ± 0.79
8,TAATGGAATAAAAATTGTACATATTTTTTTTTTTTT [XGTACX_site7669],11.1 ± 0.71
9,GAATTTCAACAAAGTAGTACATTTTATAGTAATTGG [XGTACX_site2319],11.4 ± 0.79
10,ATAAATATGTTCTGCACACAAATAAGTGTTTGAAGT [CACACA_site3892],10.2 ± 0.24
11,TCATAGGGGTAGAAGGTGCAATAAAAAAGAAGAAAA,10.5 ± 0.59
12,TATAATATATCTGTAACACACAAAAGTTATATACTT [CACACA_site5578],9.855 ± 0.064
13,TTTTTTTCTCTCTCTACACACAAGGTTTAATTTAAA [CACACA_site1690],10.2 ± 0.26
14,AACTCACGAGGACACACACACATATATATATATATA [CACACA_site4711],11.4 ± 0.98
15,ACATACATACATACATACATACATACATACATACAT [XGTACX_negctrl_site315],10.6 ± 0.57
16,AGTCATAAATTTATTTGTACATATAATATATATATA [XGTACX_site8489],11 ± 0.68
17,ATAAACAAAAAAAAAAAATATATCAATATATATATA [CACACA_negctrl_site299],9.51 ± 0.38
18,AAAATATATAATTTTTAACACACAAAAAAAAAAAAA [CACACA_site9192],9.54 ± 0.18
19,TGCCATATATATATTAAATACATAATAATGAGCCTA [GTGCAC_negctrl_site10],9.59
20,TTCATTGTGTTAACGGTGCATATATTTTTTCACCGT [GTGCAC_site9464],9.93 ± 0.057
21,ATGTTATATTTTTTTATACACACTGGGATATATAAA [CACACA_site6244],10.1 ± 0.14
22,AATCAAATTTTCAAGTCGCACCAAACAAAAAAATGA [CACACA_negctrl_site1397],10.2 ± 0.25

row,Sequence,gcPBM binding intensity (ln)
1,TATTTAATTAATATAATATTAAACGGAAAAGATAAA [TGCATGCA_negctrl_site148],10.1 ± 0.18
2,TTTTTCTTTTTTTTTTTAATAATATATAACAAATTT [CACACA_negctrl_site1724],9.68 ± 0.13
3,TAAAAATATAAAAAGTGTACAATATATAAATTAATA [XGTACX_site1606],11.3 ± 0.67
4,ATATTAAAAAAATATGCATGCAAATATTATTTTGTA [TGCATGCA_site191],9.56 ± 0.16
5,ACATCATTTTTATGTACACACACATATACGTTGAAT [CACACA_site5095],11.6 ± 0.98
6,GAAGTATTATTAAAGCTGCACTTTTCTAAAATAAAC [GTGCAC_site9429],10.2 ± 0.28
7,AAATGCGTATATAACGCATGTATAAGAACATTTTTT [TGCATGCA_site225],9.88 ± 0.2
8,TTATAATCTATACATATATATGTATGTATGTCTCAA [CACACA_negctrl_site1702],9.84
9,GCAGTATGCGATCAGTGTACGAGTTATTTTATAAAA [XGTACX_site4764],11.3 ± 0.85
10,CATTAATTTAATAAATGTACATAAAATATATATTAT [XGTACX_site8085],11.3 ± 0.75
11,TAAAATTTACAACACTGTACTTGAATTTATCTTTAA [XGTACX_site241],11.2 ± 0.75
12,GTTATACACATATATACACACATATGTAAATATATA [CACACA_site9080],9.92 ± 0.071
13,CTAATATATGTATGCACACACAATATATACATATTT [CACACA_site3360],10.07 ± 0.021
14,ATATTACAAATATAATGTACAAAATATAAATATGCA [XGTACX_site8106],10.7 ± 0.42
15,GTCCTTACTAATTAATTTTAGGCCATATAGTTTGTC [XGTACX_negctrl_site199],10.3 ± 0.17
16,ATTATGGATACATAAACACACATATATATAAAAAAA [CACACA_site4303],10.2 ± 0.3
17,ACATGATAAATAGTCACACATAAATATAATATATAT [CACACA_site5207],10.1 ± 0.28
18,TCGTAAACTTTATGCACACACATATACATATTTCAT [CACACA_site739],10.16 ± 0.064
19,ATACATGTTTTATGTGCACACAAAGTTGTTATGAGG [CACACA_site4032],10.5 ± 0.28
20,AATTATTCATAAAATGCATGTACATGGTTTAATATT [TGCATGCA_site87],10.9 ± 0.57
21,ATAATTATATTTTATTCACACATCGTTATATAGTAA [CACACA_site4743],9.94 ± 0.057
22,ATAATACACAAGCACACACACACACGGATATTTATA [CACACA_site6714],10.3 ± 0.3
